Results: PubChem BioAssay AID1508642 (National Center for Advancing Translational Sciences (NCATS), 2021)
About 200 (0.47%) of roughly 43,000 compounds were called active. Not shown: some 12% with an inconclusive outcome. Calls follow the shape of the dose curve; as a rule, active = well fitted cell-killing curve with a large enough effect; inconclusive = small, poorly fitted or top-dose-only effect, or effect the other way; inactive = flat fitted curve, though single readings scatter. The list shows a part of the results.

Test: Cell viability qHTS assay in S16 Pmp22-F2sN cells; also: nearly all actives have a fitted effect of over 65% in size
Settings: S16 Pmp22-F2sN Schwann cells (luciferase reporters placed in the Pmp22 gene) viability, CellTiter-Glo, 24 h; series mostly up to 57.5 µM; activity change, negative = cytotoxicity: at the top concentration
Outline: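 CellTiter-Glo counter-screen, qHTS, 1536-well. Cells: S16(c9) Pmp22-F2sN, 500-1,000/well in DMEM + 10% FBS. Cpd 23 nL pin transfer, 24 h, 37C/5% CO2. Read: luminescence, CCD imager.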
% is scaled to controls: 0 for no effect and ±100 for the full control effect.

SMILES	activity change, negative = cytotoxicity
COc1cc(C2c3c(-c4c(C)cc(C)cc4O)n[nH]c3C(=O)N2Cc2ccco2)cc(OC)c1OC (stereo unspecified)	inactive: 2.06%
CCOc1cc(-c2nnc(SCC(=O)NC3CCCCC3)nc2-c2ccc(OC)c(OCC)c2)ccc1OC	inactive: -6.71%
CC(C)NC(=O)C1CCCN(c2ncnc3onc(-c4ccc(F)cc4)c23)C1 (stereo unspecified)	inactive: 11.6%
CCOc1ccccc1NC(=O)CCS(=O)(=O)c1ccc2c(c1)oc(=O)n2C	inactive: -18.5%
CCCn1c2ccccc2c2cnn(CC(=O)NCCN(CC)CC)c(=O)c21	inactive: -0.237%
COc1ccc(-c2nc3ccccc3o2)cc1NC(=O)c1cccnc1	inactive: 29.3%
COc1ccc(CCNC(=O)c2ccc3c(c2)N=C(C)c2ccccc2S3)cc1OC	inactive: 6.76%
Cc1cccc(NC(=O)CN(C)S(=O)(=O)c2ccc3c(c2)c(=O)n(C)c(=O)n3C)c1C	inactive: 6.62%
Cc1cc(Nc2cccc(C(=O)O)c2)n2nc(C)nc2n1	inactive: -12.6%
CCCCOc1ccc(C(=O)Nc2cc(-c3cn4cccnc4n3)ccc2OC)cc1	inactive: 4.54%
CCOc1c(Cl)cc(CNc2ccc3[nH]c(=O)[nH]c3c2)cc1OC	inactive: 1.75%
COc1ccc(NC(=O)NC(C)c2c(-n3cccc3)sc(C)c2C)cc1OC (stereo unspecified)	inactive: -4.75%
O=C(c1cc(-c2ccc(Cl)cc2)n[nH]1)N1CCN(S(=O)(=O)c2ccc(Br)s2)CC1	inactive: -16.9%
Clc1ccccc1Cn1c(-c2cccs2)nc2ccccc21	inactive: 1.66%
CCOc1ccc(NC(=O)c2sc(-n3nc(C)c(Cc4ccc(Cl)cc4)c3C)nc2C)cc1	inactive: 14.5%
Cc1nnc(NC(=O)c2nc(SC(C)C)ncc2Cl)s1	inactive: 2.24%
CCN(c1cccc(C)c1)S(=O)(=O)c1cc2c(cc1C)n(C)c(=O)c(=O)n2C	inactive: -4.63%
Cc1cccc(N(C)C(=O)CCS(=O)(=O)c2ccc3c(c2)n(C)c(=O)c(=O)n3C)c1	inactive: 11.1%
CCc1cccc(NC(=O)c2ccc3c(c2)N(Cc2cccc(Cl)c2)C(=O)c2ccccc2S3=O)c1 (stereo unspecified)	inactive: -1.44%
CCOC(=O)c1c(-c2ccc(C)cc2)csc1NC(=O)c1cc(-c2ccc(OC)cc2)on1	inactive: -11%
Cc1ccc(NC(=O)Cn2c(=O)n(Cc3ccc4c(c3)OCO4)c(=O)c3oc4ccccc4c32)cc1C	inactive: 10.5%
CC(C)c1ccc(NC(=O)Cn2nnc(C(=O)NCc3ccc4c(c3)OCO4)c2N)cc1	inactive: -4.24%
CCOC(=O)C1CCN(Cc2cn3c(-c4ccc(OC)cc4)nnc3s2)CC1	inactive: 4.83%
COc1cccc(NS(=O)(=O)c2ccc3[nH]cc(C(=O)NC(C)c4ccccc4)c(=O)c3c2)c1 (stereo unspecified)	inactive: -7.83%

SMILES	activity change, negative = cytotoxicity
Cc1ccccc1CN1CCCN(CC(=O)Nc2ccc(F)cc2)S1(=O)=O	inactive: -6.11%
Cc1ccc(/C=C/C(=O)Nc2ccc3nc(N4CCC(C)CC4)cc(C)c3c2)cc1	inactive: 17.3%
Cc1cc(N2CCC(C(=O)Nc3ccc(F)cc3F)CC2)n2nc(C)c(-c3ccc(Cl)cc3)c2n1	inactive: 6.15%
CCOc1ccc(C(=O)Nc2ccc3nc(N(CC)CC)cc(C)c3c2)cc1	inactive: 13.1%
Cn1c(=O)oc2cc(S(=O)(=O)NC(Cc3ccccc3)C(=O)Nc3ccc(F)c(Cl)c3)ccc21 (stereo unspecified)	inactive: 2.06%
COc1cc(-c2cc(OC)c3c(C)oc(C)c3c(=O)c2)ccc1OC(=O)c1cccc(C)c1	inactive: 0.43%
Cc1nn(S(=O)(=O)c2ccc(F)cc2)c(C)c1S(=O)(=O)N1CCCCCC1	inactive: 1.45%
Cc1c(-c2ccccc2)c(=O)oc2c(CN3CCOCC3)c(O)ccc12	inactive: -0.405%
Cc1ccc(C2C=C(c3ccccc3)Nc3nc(NS(C)(=O)=O)nn32)cc1 (stereo unspecified)	inactive: 1.59%
CCc1cccc(C)c1NC(=O)CSc1nc2ccncc2[nH]1	inactive: -28.4%
COc1ccc(NC(=O)C2CCN(c3cc(C)nc4c(-c5ccc(Cl)cc5)c(C)nn34)CC2)cc1	inactive: 3.53%
CCOc1ccc(C2C(C(=O)Nc3ccc(OC)cc3)=C(C)Nc3nc(CCCO)nn32)cc1 (stereo unspecified)	inactive: 2.21%
Cc1ccc(-c2noc(-c3ccc(N4CCCC4)c([N+](=O)[O-])c3)n2)cc1	inactive: 4.98%
CCCc1cc(=O)[nH]c(SCc2nc(-c3ccc(OCC)cc3)no2)n1	inactive: -2.63%
CCOC(=O)c1ccc(N2C(=O)c3n[nH]c(-c4ccco4)c3C2c2ccccc2OC)cc1 (stereo unspecified)	inactive: -0.53%
COc1ccc(N(C)S(=O)(=O)c2ccc3c(c2)CCN3C(=O)CCC(=O)O)cc1	inactive: 3.74%
COc1ccc(NC(=O)c2ccco2)cc1NC(=O)c1ccccc1[N+](=O)[O-]	inactive: 18.2%
CCc1cccc(C)c1Nc1nn2c(=O)c3ccccc3nc2s1	inactive: -4.24%
COc1cccc(NC(=O)Cn2c(=O)n(CCC(=O)NCc3ccccc3OC)c(=O)c3ccccc32)c1	inactive: 2.73%
COc1ccc(Cl)cc1NC(=O)Cn1c(=O)n2nc(-c3ccccc3)nc2c2ccccc21	inactive: 1.72%
COc1cc(C2C=C(C(=O)O)Nc3ncnn32)ccc1O (stereo unspecified)	inactive: 3.04%
CCOc1ccc2c(c1)c(=O)c(C(=O)c1ccc(CC)cc1)cn2CC(=O)Nc1ccc2c(c1)OCCO2	inactive: 12%
COc1ccc(CNC(=O)c2nn(C)c3c2CSc2ccccc2-3)cc1	inactive: -9.01%
COc1ccc(-c2csc(-c3c(N)c(C(=O)c4ccc(OC)c(OC)c4)n4ccccc34)n2)cc1	inactive: -10.6%

SMILES	activity change, negative = cytotoxicity
COc1ccc(C)c2sc(N(Cc3cccnc3)C(=O)c3cccs3)nc12	inactive: -25%
Cc1ccc(NC(=O)Cn2cc3c(n2)CCCC3)cc1Cl	inactive: -3.16%
CCN1CCc2c(sc(-n3cccc3)c2C(C)NC(=O)Nc2ccc(C(=O)OC)cc2)C1 (stereo unspecified)	inactive: -1.59%
Cc1cccc(N2CCN(C(=O)CCS(=O)(=O)c3ccc4c(c3)CC(=O)N4C)CC2C)c1 (stereo unspecified)	inactive: -1.94%
CC(=O)N1CCN(c2csc3ccc(Cl)cc3c2=O)CC1	inactive: 1.15%
Cc1ccc(NS(=O)(=O)c2ccc3c(c2)n(C)c(=O)n3C)c(C)c1	inactive: -2.61%
Cc1cccc(C(c2sc3nc(-c4ccco4)nn3c2O)N2CCOCC2)c1 (stereo unspecified)	inactive: 5.33%
CCCCOC(=O)c1ccc(NC(=O)c2ccc3c(c2)CCN3S(C)(=O)=O)cc1	inactive: -3.91%
Clc1cccc(CNCCCSc2nnnn2-c2ccccc2)c1	inactive: 5.47%
COC(=O)c1scc(-c2ccc(C)cc2)c1S(=O)(=O)Nc1cc(C)c(Cl)cc1OC	inactive: 2.97%
CCOC(=O)c1c(-c2ccccc2)oc2ccc(OCc3ccccc3Br)cc12	inactive: -1.41%
CCOc1ccccc1NC(=O)Cn1c(=O)oc2ccccc21	inactive: -9.33%
COc1ccc(NC(=O)Cn2cc(C(=O)c3ccc(C)c(C)c3)c(=O)c3cc(OC)ccc32)cc1	inactive: -1.2%
O=C(NCCc1cccs1)c1ccc(Cn2c(SCc3cccc(F)c3)nc3cccnc32)cc1	inactive: -30%
Cc1ccccc1S(=O)Cc1ccc(C(=O)NCc2ccccc2Cl)o1 (stereo unspecified)	inactive: 5.69%
O=C(Cn1cc(C(=O)c2ccco2)c2ccccc21)Nc1ccccc1C(F)(F)F	inactive: -12.8%
COc1ccc(-c2csc3ncnc(Nc4ccccc4)c23)cc1	inactive: -21%
Cc1ccc(CSC2=NC(C)(C)Nc3ccccc32)c(C)c1	inactive: -13%
Fc1cccc(CN2CCc3nc(Nc4ccc5c(c4)OCCO5)ncc3C2)c1F	inactive: -0.255%
Cc1c(NC(=O)Cc2ccc(Cl)cc2)cccc1-c1nc2cccnc2s1	inactive: -14.4%
CCOC(=O)c1c(C)[nH]c(C)c1S(=O)(=O)NCC(=O)Nc1cccc(Cl)c1	inactive: 19.3%
Cc1ccc(-n2ncc(C(=O)N3CCN(c4ccccc4F)CC3)c2C2CCN(C(=O)OC(C)(C)C)CC2)cc1C	inactive: 13.7%
CSc1ncc(Cl)c(C(=O)Nc2c(C(=O)c3ccc(Cl)cc3)oc3ccccc23)n1	inactive: -4.45%
Cc1cccc(OC(=O)CSc2nnc(-c3cccs3)o2)c1C	inactive: 22.3%

SMILES	activity change, negative = cytotoxicity
CCOC(=O)c1c(S(=O)(=O)N2CCCC(C(=O)Nc3cccc(CC)c3)C2)c(C)n(CC)c1C (stereo unspecified)	inactive: -12.8%
O=C(CSc1nc(Nc2ccccc2)c2ccccc2n1)c1ccc(Cl)cc1	inactive: 5.41%
Cc1ccccc1Nc1c(-c2c[nH]c3ccccc23)nc2ccc(Cl)cn12	inactive: -18%
Cc1cc(C)cc(NC(=O)NCc2c(-n3cccc3)sc3c2CCCC3)c1	inactive: 26.6%
Cc1cccc(CNC(=O)Cn2nc(C)c3nn(-c4ccc(Cl)cc4)c(C)c3c2=O)c1	inactive: -6.71%
Cc1c(CNC2CCCCCC2)c(C(=O)O)c(C)n1Cc1cccc(Cl)c1	inactive: 3.55%
CCOc1ccc(CNC(=O)c2cc3c(=O)oc4ccc(C)cc4c3s2)cc1	inactive: -5.62%
COc1ccc(C2C(C(=O)Nc3ccccc3)=C(C)Nc3nc(-c4ccc(Cl)cc4)nn32)cc1 (stereo unspecified)	inactive: 4.42%
Cc1ccc(NC(=O)CSCc2cc(=O)c3ccccc3[nH]2)c(C)c1	inactive: -10.4%
Cc1ccccc1CNCCCSc1nnnn1C	inactive: 1.25%
COc1ccc(CNC(=O)C2CCN(S(=O)(=O)c3cccc(-c4noc(C)n4)c3)CC2)cc1	inactive: -0.759%
Cc1cccc(Cn2c(CN3CCC(C(=O)NC(C)C)CC3)cc3ccccc32)c1	inactive: -9.65%
Cc1cccc(Nc2nc(-c3ccccc3)nc3ccccc23)c1	inactive: -9.81%
COc1ccc(Cn2c(CO)cnc2SCc2ccccc2)cc1	inactive: -4.77%
O=C(COCc1cc(-c2ccc(F)cc2)on1)Nc1cccc(C(F)(F)F)c1	inactive: 4.28%
CCCOc1ccc(C2C(=O)N(C3CCCCC3)CC(=O)N2C2CCCCC2)cc1OC (stereo unspecified)	inactive: -3.19%
Cc1ccc(-n2c(=O)c3c(C)c(C(=O)N(C)C)sc3n(Cc3ccccc3C)c2=O)cc1C	inactive: 1.36%
O=S(=O)(c1ccccc1)n1nc(-c2ccco2)nc1NCc1ccccc1	inactive: 5.86%
CCc1nnc(NC(=O)c2nc(SCc3cccc(C)c3)ncc2Cl)s1	inactive: -0.914%
CCOc1ccc(-c2cn3c(n2)sc2cc(C(=O)NC(C)C45CC6CC(CC(C6)C4)C5)ccc23)cc1 (stereo unspecified)	inactive: -0.191%
CC1CCN(C(=O)Cn2cc(SCC(=O)NCc3ccccc3)c3ccccc32)CC1	inactive: -11.4%
CCOc1ccc(C(c2c(O)cc(C)n(Cc3ccco3)c2=O)N2CCN(C)CC2)cc1 (stereo unspecified)	inactive: 9.88%
COc1cccc(N2CC(NC(=O)/C=C\c3ccccc3)CC2=O)c1 (stereo unspecified)	inactive: 0.142%
O=C(CSc1nc2c([nH]c3ccccc32)c(=O)n1-c1ccccc1F)Nc1cccc(Cl)c1	inactive: -25.1%
